{
  "source": "PubChem BioAssay (NCI)",
  "experiment_in_all_cases": "NCI tumour cell line growth inhibition, 48 h",
  "key": {"[1]": {"system": "NCI-H226 lung"}, "[2]": {"system": "NCI-H23 lung"}, "[3]": {"system": "NCI-H460 lung"}, "[4]": {"system": "NCI-H522 lung"}, "[5]": {"system": "NCI/ADR-RES ovarian"}, "[6]": {"system": "OVCAR-3 ovarian"}, "[7]": {"system": "OVCAR-4 ovarian"}, "[8]": {"system": "OVCAR-5 ovarian"}, "[9]": {"system": "OVCAR-8 ovarian"}, "[10]": {"system": "PC-3 prostate"}, "[11]": {"system": "RPMI-8226 leukemia"}, "[12]": {"system": "RXF 393 renal"}, "[13]": {"system": "SF-268 CNS"}, "[14]": {"system": "SF-295 CNS"}, "[15]": {"system": "SF-539 CNS"}, "[16]": {"system": "SK-MEL-2 melanoma"}, "[17]": {"system": "SK-MEL-28 melanoma"}, "[18]": {"system": "SK-MEL-5 melanoma"}, "[19]": {"system": "SN12C renal"}, "[20]": {"system": "SNB-19 CNS"}, "[21]": {"system": "SNB-75 CNS"}, "[22]": {"system": "SR leukemia"}, "[23]": {"system": "SW-620 colon"}, "[24]": {"system": "TK-10 renal"}, "[25]": {"system": "U251 CNS"}, "[26]": {"system": "UACC-257 melanoma"}, "[27]": {"system": "UACC-62 melanoma"}, "[28]": {"system": "UO-31 renal"}},
  "note": "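The compound was tested at five concentrations on cells cultured in 96-well plates, with a 48-hour exposure period. Here, GI50 denotes the concentration required for 50% inhibition of growth.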 Some entries of the source have several records that differ or are many. This list holds those alone. The source may hold further records. For some assays here: A record mostly stands for its own series of concentrations, not given here; a value can be the end of its range. Marks in square brackets tell the records apart. Letters hold for one entry only. For some assays here: Values that stand side by side are repeated measurements (runs, samples, wells, individuals or studies).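 At the TGI there is no net growth.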",
  "data": [
    {"compound": "Nc1ncnc2c(C3OC(CO)C(O)C3O)nsc12", "note": "(stereo not given)", "values": [
      {"measurement": "GI50", "setting": "[1]", "value": "51.8 nM [sample A, 1 test] and < 15.7 nM [sample A, mean of 2 tests] and 29.7 µM [sample B, mean of 2 tests]"},
      {"measurement": "TGI", "setting": "[1]", "value": "712 nM [sample A, mean of 2 tests] and > 100 µM [sample B, mean of 2 tests]"},
      {"measurement": "GI50", "setting": "[2]", "value": "93.9 nM [sample A, 1 test] and < 26.9 nM [sample A, mean of 2 tests] and 41.3 µM [sample B, mean of 2 tests]"},
      {"measurement": "TGI", "setting": "[2]", "value": "1.46 µM [sample A, mean of 2 tests] and > 100 µM [sample B, mean of 2 tests]"},
      {"measurement": "GI50", "setting": "[3]", "value": "< 12.1 nM [sample A, mean of 2 tests] and 5.66 µM [sample B, 1 test]"},
      {"measurement": "GI50", "setting": "[4]", "value": "28 nM [sample A, 1 test] and < 15.6 nM [sample A, mean of 2 tests] and 20.7 µM [sample B, mean of 2 tests]"},
      {"measurement": "TGI", "setting": "[4]", "value": "127 nM [sample A, 1 test] and 289 nM [sample A, mean of 2 tests] and > 79.1 µM [sample B, mean of 2 tests]"},
      {"measurement": "GI50", "setting": "[5]", "value": "8.06 nM [sample A, 1 test] and 4.69 µM [sample B, mean of 2 tests]"},
      {"measurement": "TGI", "setting": "[5]", "value": "86.6 nM [sample A, 1 test] and 383 nM [sample A, mean of 2 tests] and > 100 µM [sample B, mean of 2 tests]"},
      {"measurement": "GI50", "setting": "[6]", "value": "28 nM [sample A, 1 test] and < 11 nM [sample A, mean of 2 tests] and 10.6 µM [sample B, mean of 2 tests]"},
      {"measurement": "TGI", "setting": "[6]", "value": "178 nM [sample A, 1 test] and 40.3 nM [sample A, mean of 2 tests] and > 81.8 µM [sample B, mean of 2 tests]"},
      {"measurement": "GI50", "setting": "[7]", "value": "53.1 nM [sample A, 1 test] and < 13.7 nM [sample A, mean of 2 tests] and 7.52 µM [sample B, mean of 2 tests]"},
      {"measurement": "TGI", "setting": "[7]", "value": "94.2 nM [sample A, mean of 2 tests] and > 93.9 µM [sample B, mean of 2 tests]"},
      {"measurement": "GI50", "setting": "[8]", "value": "56.3 nM [sample A, 1 test] and < 13.1 nM [sample A, mean of 2 tests] and 27.7 µM [sample B, mean of 2 tests]"},
      {"measurement": "TGI", "setting": "[8]", "value": "4.31 µM [sample A, mean of 2 tests] and > 100 µM [sample B, mean of 2 tests]"},
      {"measurement": "GI50", "setting": "[9]", "value": "18.3 nM [sample A, 1 test] and 6.44 µM [sample B, mean of 2 tests]"},
      {"measurement": "TGI", "setting": "[9]", "value": "514 nM [sample A, 1 test] and 1.01 µM [sample A, mean of 2 tests] and > 100 µM [sample B, mean of 2 tests]"},
      {"measurement": "TGI", "setting": "[10]", "value": "43 nM [sample A, mean of 2 tests] and 93.4 µM [sample B, 1 test]"},
      {"measurement": "GI50", "setting": "[11]", "value": "18.9 nM [sample A, 1 test] and 3.45 µM [sample B, mean of 2 tests]"},
      {"measurement": "TGI", "setting": "[11]", "value": "194 nM [sample A, mean of 2 tests] and > 29.6 µM [sample B, mean of 2 tests]"},
      {"measurement": "GI50", "setting": "[12]", "value": "7.36 nM [sample A, 1 test] and < 17.8 nM [sample A, mean of 2 tests] and 21.7 µM [sample B, mean of 2 tests]"},
      {"measurement": "TGI", "setting": "[12]", "value": "53.9 nM [sample A, 1 test] and 201 nM [sample A, mean of 2 tests] and > 74.7 µM [sample B, mean of 2 tests]"},
      {"measurement": "GI50", "setting": "[13]", "value": "27.2 nM [sample A, mean of 2 tests] and 29.3 µM [sample B, mean of 2 tests]"},
      {"measurement": "GI50", "setting": "[14]", "value": "32.4 nM [sample A, 1 test] and 29.8 nM [sample A, mean of 2 tests] and 31 µM [sample B, mean of 2 tests]"},
      {"measurement": "TGI", "setting": "[14]", "value": "296 nM [sample A, 1 test] and > 100 µM [sample A, mean of 2 tests] and 98.9 µM [sample B, mean of 2 tests]"},
      {"measurement": "GI50", "setting": "[15]", "value": "178 nM [sample A, 1 test] and < 26.4 nM [sample A, mean of 2 tests] and 39.7 µM [sample B, mean of 2 tests]"},
      {"measurement": "TGI", "setting": "[15]", "value": "528 nM [sample A, 1 test] and > 43 µM [sample A, mean of 2 tests] and > 100 µM [sample B, mean of 2 tests]"},
      {"measurement": "GI50", "setting": "[16]", "value": "18.6 nM, 10.5 nM [sample A, 1 test] and 6.47 µM [sample B, mean of 2 tests]"},
      {"measurement": "TGI", "setting": "[16]", "value": "82.7 nM, 48.6 nM [sample A, 1 test] and 47 µM [sample B, mean of 2 tests]"},
      {"measurement": "GI50", "setting": "[17]", "value": "42.2 nM [sample A, 1 test] and 36.2 nM [sample A, mean of 2 tests] and 37.5 µM [sample B, mean of 2 tests]"},
      {"measurement": "TGI", "setting": "[17]", "value": "514 nM [sample A, 1 test] and 3.38 µM [sample A, mean of 2 tests] and > 100 µM [sample B, mean of 2 tests]"},
      {"measurement": "GI50", "setting": "[18]", "value": "46.8 nM [sample A, 1 test] and 30.6 nM [sample A, mean of 2 tests] and 30.7 µM [sample B, mean of 2 tests]"},
      {"measurement": "TGI", "setting": "[18]", "value": "357 nM [sample A, 1 test] and 227 nM [sample A, mean of 2 tests] and > 100 µM [sample B, mean of 2 tests]"},
      {"measurement": "GI50", "setting": "[19]", "value": "23.3 nM [sample A, 1 test] and < 18.8 nM [sample A, mean of 2 tests] and 14.8 µM [sample B, mean of 2 tests]"},
      {"measurement": "TGI", "setting": "[19]", "value": "181 nM [sample A, 1 test] and > 94.6 µM [sample B, mean of 2 tests]"},
      {"measurement": "GI50", "setting": "[20]", "value": "96.1 nM [sample A, 1 test] and 116 nM [sample A, mean of 2 tests] and 98 µM [sample B, mean of 2 tests]"},
      {"measurement": "GI50", "setting": "[21]", "value": "18 nM [sample A, 1 test] and < 11.8 nM [sample A, mean of 2 tests] and 6.63 µM [sample B, mean of 2 tests]"},
      {"measurement": "TGI", "setting": "[21]", "value": "75.1 nM [sample A, 1 test] and < 31.3 nM [sample A, mean of 2 tests] and 53.7 µM [sample B, mean of 2 tests]"},
      {"measurement": "GI50", "setting": "[22]", "value": "36.8 nM [sample A, 1 test] and 509 nM [sample B, mean of 2 tests]"},
      {"measurement": "TGI", "setting": "[22]", "value": "< 19.6 nM [sample A, mean of 2 tests] and > 58.9 µM [sample B, mean of 2 tests]"},
      {"measurement": "GI50", "setting": "[23]", "value": "23.9 nM [sample A, 1 test] and 6.62 µM [sample B, mean of 2 tests]"},
      {"measurement": "GI50", "setting": "[24]", "value": "28 nM [sample A, 1 test] and < 10.5 nM [sample A, mean of 2 tests] and 10.2 µM [sample B, mean of 2 tests]"},
      {"measurement": "TGI", "setting": "[24]", "value": "110 nM [sample A, mean of 2 tests] and > 62.3 µM [sample B, mean of 2 tests]"},
      {"measurement": "GI50", "setting": "[25]", "value": "74.7 nM [sample A, 1 test] and 41.4 nM [sample A, mean of 2 tests] and 50.4 µM [sample B, mean of 2 tests]"},
      {"measurement": "GI50", "setting": "[26]", "value": "49.4 nM [sample A, 1 test] and < 19 nM [sample A, mean of 2 tests] and 45.7 µM [sample B, mean of 2 tests]"},
      {"measurement": "TGI", "setting": "[26]", "value": "391 nM [sample A, 1 test] and 869 nM [sample A, mean of 2 tests] and > 100 µM [sample B, mean of 2 tests]"},
      {"measurement": "GI50", "setting": "[27]", "value": "17.3 nM [sample A, 1 test] and 13.3 µM [sample B, 1 test]"},
      {"measurement": "TGI", "setting": "[27]", "value": "96 nM [sample A, 1 test] and 68.7 µM [sample B, 1 test]"},
      {"measurement": "GI50", "setting": "[28]", "value": "15.8 nM [sample A, 1 test] and 3.16 µM [sample B, mean of 2 tests]"},
      {"measurement": "TGI", "setting": "[28]", "value": "59.8 nM [sample A, 1 test] and > 26.2 µM [sample B, mean of 2 tests]"}
    ]}
  ]
}
